In article PMC13083723 (Patterns, 2026):
Out of some 5,400 compounds screened, about 190 (3.5%) showed an effect of 50% or more. Some of the results follow.

Tested on: Vero-E6
Test: primary screen, phospholipidosis by LipidTOX staining; higher = more effect of the substance
Settings: 10 µM
How it was run: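 Single-concentration screen at 10 μM, with DMSO 0.1 v/v % and amiodarone 10 μM as controls. Read-out is LipidTOX Red phospholipid staining, which tolerates aldehyde fixation, in Vero-E6 cells.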

| Compound | result_ITMP |
| --- | --- |
| CC[N+](CC)(CC)CC(=O)Nc1c(C)cccc1C | -7.72% |
| Cc1ccc([N+](=O)[O-])cc1S(=O)(=O)N(C)/N=C/c1cnc2ccc(Br)cn12 | -3.07% |
| COc1cc(-c2ccc(=O)[nH]n2)ccc1OC(F)F | -2.3% |
| Cc1noc(C)c1-c1ccc(-c2cc(C(N)=O)c(NC(N)=O)s2)c(O[C@H]2CCNC2)c1 | -2.49% |
| CC(C)(Sc1ccncc1-c1ccc(C#N)c2ccccc12)C(=O)O | -2.29% |
| CCCCC1(COC(=O)CCC(=O)O)C(=O)N(c2ccccc2)N(c2ccccc2)C1=O | -3.55% |
| COc1cc(NC(C)CCCN)c2ncccc2c1 (stereo not shown) | 1.37% |
| Cc1[nH]cnc1-c1ccc(Cl)cc1 | 1.74% |
| O=c1[nH]c(=O)n([C@H]2C[C@H](O)[C@@H](CO)O2)cc1Br | 0.31% |
| CC/C=C\C/C=C\C/C=C\C/C=C\C/C=C\C/C=C\CCC(=O)OCC | 4.73% |
| Nc1cccc(CNC(=O)c2ccc(Oc3ccc(OCc4cccc(F)c4)cc3)nc2)c1 | -1.49% |
| NS(=O)(=O)c1cc(-c2nnn[nH]2)c(NCc2cccs2)cc1Cl | -2.54% |
| CC(=O)CC/C=C(\C)CC/C=C(\C)CC/C=C(\C)CCC=C(C)C | -7.33% |
| Nc1ccc([As](=O)(O)O)cc1 | 9.57% |
| CCCCNc1c(C(=O)OCC)c(C)nc2c1cnn2CC | 6.87% |
| c1ccc(COCCCc2cnc[nH]2)cc1 | -5.1% |
| CNCc1cc(-c2ccccc2F)n(S(=O)(=O)c2cccnc2)c1 | 8.33% |
| c1ccc(CCCN2CCN(CCOC(c3ccccc3)c3ccccc3)CC2)cc1 | 15% |
| CC[C@H](CC[C@@H](C)[C@H]1CC[C@H]2[C@@H]3CC=C4C[C@@H](O[C@@H]5O[C@H](CO)[C@@H](O)[C@H](O)[C@H]5O)CC[C@]4(C)[C@H]3CC[C@]12C)C(C)C | 0.41% |
| Cc1nn(C)c2c1C(c1ccc(C(F)(F)F)cc1)C(C#N)=C(N)O2 (stereo not shown) | -0.76% |
| Cc1c(I)c(=O)n(-c2ccccc2)n1C | -2.43% |
| Cc1ccccc1C(OCCN(C)C)c1ccccc1 (stereo not shown) | 25.3% |

| Compound | result_ITMP |
| --- | --- |
| Cc1ccc(/C=C2\CNC/C(=C\c3ccc(C)cc3)C2=O)cc1 | 2.54% |
| O=C1CCc2ccc(OCCCCN3CCN(c4cccc(Cl)c4Cl)CC3)cc2N1 | -3.7% |
| CCCCCCCCCCCCCCCC(=O)C(F)(F)F | -2.15% |
| CN(C)CCOC(c1ccc(Cl)cc1)c1ccccn1 (stereo not shown) | 2.78% |
| Nc1nc2c(ccc3ccccc32)s1 | -1.43% |
| NC(=O)NC1NC(=O)NC1=O (stereo not shown) | -3.18% |
| CCOCc1nc2c(N)nc3ccccc3c2n1CC(C)(C)O | 0.48% |
| Cc1cccc2c1CC[C@H](CN1CCC(c3c(Cl)cccc3Cl)CC1)C[C@@H]2O | 5.16% |
| O=C(O)CNC(=O)c1nc(Cl)c2ccccc2c1O | -2.69% |
| NCCCC(N)(C(=O)O)C(F)F (stereo not shown) | 1.12% |
| CCC[C@@H]1C[C@@H](C(=O)N[C@@H]([C@H]2O[C@H](SC)[C@H](OP(=O)(O)O)[C@@H](O)[C@H]2O)[C@H](C)Cl)N(C)C1 | -1.73% |
| O=C(N[C@@H]1CC[C@@H](c2cccc(F)c2F)CN(CC(F)(F)F)C1=O)N1CCC(n2c(=O)[nH]c3ncccc32)CC1 | -1.74% |
| CCCCCCCCCCCC1=C(O)C(=O)C=C(O)C1=O | -1.73% |
| COc1c2ccoc2cc2oc(=O)ccc12 | -2.63% |
| Cc1ccc(NC2=NCCN2)c(Cl)c1 | -3.49% |
| COC(=O)C1=C(C)NC(C)=C(C(=O)OCC(C)C)C1c1ccccc1[N+](=O)[O-] (stereo not shown) | -1.79% |
| COCCn1c2c([n+](Cc3cnccn3)c1C)C(=O)c1ccccc1C2=O | -1.41% |
| CCCn1c(=O)c2[nH]cnc2n(-c2ccc(Cl)cc2)c1=O | -8.65% |
| CC1(C)CCC(C)(C)c2cc(C(=O)Nc3ccc(C(=O)O)cc3)ccc21 | -1.5% |
| COc1ccc2cc(OCC3(C(=O)O)CN(C(=O)c4ccc(F)cc4)C3)ccc2c1 | 10.8% |
| O=C1Cc2c([nH]c3ccc(Br)cc23)-c2ncccc2N1 | 3.76% |
| C=C[C@@]1(C)CC(=O)[C@@]2(O)[C@](C)(O1)[C@@H](OC(C)=O)[C@@H](O)C1C(C)(C)CC[C@H](O)[C@@]12C (stereo partly shown) | -4.36% |

| Compound | result_ITMP |
| --- | --- |
| CN[C@@H](C)C(=O)N[C@H]1CCCC[C@H]2CCC(C(=O)N[C@@H](c3ccccc3)c3cn(CCCCc4ccc(CCCCn5cc([C@@H](NC(=O)[C@@H]6CC[C@@H]7CCCC[C@H](NC(=O)[C@H](C)NC)C(=O)N76)c6ccccc6)nn5)cc4)nn3)N2C1=O (stereo partly shown) | 8.05% |
| CC[C@@H]1/C=C(\C)C[C@H](C)C[C@H](OC)[C@H]2O[C@@](O)(C(=O)C(=O)N3CCCC[C@H]3C(=O)O[C@H](/C(C)=C/[C@@H]3CC[C@@H](O)[C@H](OC)C3)[C@H](C)[C@@H](O)CC1=O)[C@H](C)C[C@@H]2OC | -2.4% |
| Cn1cc(-c2[nH]c3cc(NC(=O)[C@H](N)C4CCCCC4)cc4c3c2C=NNC4=O)cn1 | -5.22% |
| CC1(C)CNc2cc(NC(=O)c3cccnc3NCc3ccncc3)ccc21 | -0.14% |
| CCCCOc1nc(N)c2c(n1)N(Cc1cccc(CN3CCCC3)c1)CC(=O)N2 | -2.95% |
| CN(C)c1cccc(-c2c3c(=O)n(-c4ccccc4Cl)[nH]c3cc(=O)n2C)c1 | -4.23% |
| COC(=O)C1=C(C)NC(C)=C(C(=O)OCCN(C)Cc2ccccc2)C1c1cccc([N+](=O)[O-])c1 (stereo not shown) | 6.14% |
| C[C@]12CCC(=O)C=C1CCC1C2[C@@H](O)C[C@@]2(C)C1CC[C@]2(O)C(=O)COC(=O)CCC(=O)O (stereo partly shown) | -1.39% |
| Cc1nc(C#Cc2ccnc(Cl)c2)c(C)n1-c1ccc(OC(F)(F)F)cc1 | -6.8% |
| OC[C@H]1O[C@@H](c2ccc(Cl)c(Cc3ccc(O[C@H]4CCOC4)cc3)c2)[C@H](O)[C@@H](O)[C@@H]1O | -9.54% |
| COc1ccc(C2CC(c3ccccc3)=NN2c2ccc(S(N)(=O)=O)cc2)cc1 (stereo not shown) | -11.9% |
| CCOc1ccccc1-n1c(C(C)N2CCN(C(=O)COc3ccc(Cl)cc3)CC2)nc2ccccc2c1=O (stereo not shown) | -9.74% |
| CC(=O)N1CCN(C)CC1 | -1.39% |
| Cc1cc(-c2ccc(CC(=O)Nc3ccc(-c4cccnc4)cc3)cc2)ccn1 | -0.82% |
| C[C@H]1Oc2cc(cnc2N)-c2c(nn(C)c2C#N)CN(C)C(=O)c2ccc(F)cc21 [R4A_0001637_001 / SPE_A23124853] | -7.18% |
| CN1CCN(c2c(F)cc3c(=O)c(C(=O)O)cn4c3c2SCC4)CC1 | 4.79% |
| NCCCC[C@H](NC(=O)[C@@H]1CCCN1C(=O)[C@@H]1CSSC[C@H](N)C(=O)N[C@@H](Cc2ccc(O)cc2)C(=O)N[C@@H](Cc2ccccc2)C(=O)N[C@@H](CCC(N)=O)C(=O)N[C@@H](CC(N)=O)C(=O)N1)C(=O)NCC(N)=O | -9.53% |
| COCCOc1ccc2c(c1)ncn2-c1ccc2cccc(N3CCC(N)CC3)c2n1 | 62.5% |
| Cc1cc(-c2ncc(CC(=O)Nc3ccc(-c4cnccn4)cn3)cc2C)ccn1 | 24.4% |
| O=C(O)COCCN1CCN([C@H](c2ccccc2)c2ccc(Cl)cc2)CC1 | -0.8% |
| COc1ccc2c(O[C@@H]3C[C@H]4C(=O)N[C@]5(C(=O)NS(=O)(=O)C6CC6)C[C@H]5/C=C\CCCCN(C)C(=O)[C@@H]4C3)cc(-c3nc(C(C)C)cs3)nc2c1C | -1.22% |
| Cc1cnc(C(=O)NCCc2ccc(S(=O)(=O)NC(=O)NC3CCCCC3)cc2)cn1 | 1.86% |

| Compound | result_ITMP |
| --- | --- |
| O=C(Cc1ccccc1)Nc1nc2ccc(Cl)cc2c2nc(-c3ccco3)nn12 | -0.77% |
| CC(C)NC[C@H](O)COc1cccc2[nH]ccc12 | -11.5% |
| CN1CCC(NC(=O)c2cc(-c3c(O)cc(O)cc3Oc3ccc([N+](=O)[O-])cc3)on2)CC1 | -1.53% |
| CC(C)Cc1ccc(C(C)C(=O)O)cc1 (stereo not shown) [R4A_0001344_001 / SPE_M64062803] | -5.52% |
| c1cc(-c2cnn3cc(-c4ccc(OCCN5CCCCC5)cc4)cnc23)ccn1 | 27.5% |
| O=C(c1cc(S(=O)(=O)Nc2ccccc2F)c(F)cc1Cl)N1CCN2CCC[C@@H]2C1 | -2.45% |
| c1cc2c3c(c1)c1c(n3CCNC2)CCCC1 | 25.2% |
| O=C1[C@H](CC[C@H](O)c2ccc(F)cc2)[C@@H](c2ccc(O)cc2)N1c1ccc(F)cc1 | -0.02% |
| Brc1c(Br)c(Br)c2[nH]nnc2c1Br | -8.08% |
| O=C(CCn1cnc2c(O)ncnc21)Nc1ccc(C(=O)O)cc1 | -5.54% |
| COc1ccccc1N1CCN(CCCCNC(=O)c2ccc3ccccc3c2)CC1 | 34.4% |
| CCC1NC(=O)c2cc(S(N)(=O)=O)c(Cl)cc2N1 (stereo not shown) | -5.39% |
| Nc1ncnc2c1C(=O)N(c1ccc([C@H]3CC[C@H](CC(=O)O)CC3)cc1)CCO2 | -1.59% |
| Cc1ccc2c(=O)c3ccccc3n(CCCN)c2c1C | 13.5% |
| O=C([O-])C(Cl)Cl | -4.51% |
| Cc1ncc(COP(=O)(O)O)c(C=O)c1O | -4.81% |
| Cc1n[nH]c(C)c1Cc1sc2c(c1C(=O)N1C[C@H](O)CO1)c(=O)n(C)c(=O)n2CC(C)C | -2.38% |
| CC(=C\c1ccc(Cl)cc1)/C(C)=N/O | -1.28% |
| N#CN/C(=N\c1ccncc1)NCCCCCCOc1ccc(Cl)cc1 | 0.38% |
